Measured values taken from the RNAGym collection of RNA variant scans (doi:10.7554/elife.90254).
Read counts are not given, so values of variants with three or more changes are uncertain.

B1: LINE1-mini (parent)
chain: GGCAGAGCUCAACACAGCGUGGCAAAGUGGCUGUGGCUAGACUGCC

Variants of: B1
Assay: self-cleavage, relative activity (ratio to wild type); higher = more cleavage; in vitro, sequencing; the parent is a self-cleaving ribozyme

Row | Variant | self-cleavage
1 | GACAGAGCACAACACUGCGUGGAAAAGUGGCUGUGUCUAGACUGCG [G2A U9A A16U C23A G36U C46G] | 0.19
2 | GACAGAGCGCAACACAGCGUGGCAACGUGGCUGUGGCUAGACUGCC [G2A U9G A26C] | 0.37
3 | GACAGAGCUCAACACAGCGUGGCAAAGUAGCUGUGCCUAGACUGCC [G2A G29A G36C] | 0.13
4 | GACAGAGCUCAACACAGCGUGGCAAAGUGUCUGUGGCUAGACUACC [G2A G30U G44A] | 1.15
5 | GACAGAGCUCAACACAGCGUGCCAAAGUGGCUGUGGCUAGAUUGCC [G2A G22C C42U] | 0.45
6 | GACAGAGCUCAACACAGCGUGUCAAAGUUGCUGUGGCGAGACUGCC [G2A G22U G29U U38G] | 0.04
7 | GACAGAGCUCAACACAGCGUGGCAAAAUGGCUGUGCCUAGGCUGCC [G2A G27A G36C A41G] | 0.52
8 | GACAGAGCUCAACACAGCGUGGCAAAGUGGCUGUGGCUAAAGUGCC [G2A G40A C42G] | 0.28
9 | GACAGAGCACAACACAGCGUGGGAAGGUGGCUGUUGUUAAACUGCC [G2A U9A C23G A26G G35U C37U G40A] | 0.08
10 | GACAGAGCUCAACACAGCGUGGCAAAUUGGCUGUUGCUAGACUGCC [G2A G27U G35U] | 0.25
11 | GACAGAGCUCAACACAGCGUGACAAACUAGCUGUGGCUAGACAGCC [G2A G22A G27C G29A U43A] | 0.12
12 | GACAGAGCUCAACACAGCGUGGCAAAUUAGCUGUGGCUAGACUGCC [G2A G27U G29A] | 1.34
13 | GACAGAGCUCAACACAGCGUGGCAAAGUCGCUGUGGGUAGACUGCC [G2A G29C C37G] | 0.02
14 | GACAGAGCUCAACACAGCGUGUCAAAGUGGCUGUGGCUACAUUGCC [G2A G22U G40C C42U] | 0.03
15 | GACAGAGCUCAACACAGCGUGGCAAAGUCGCUGAGGAUAGACUGCC [G2A G29C U34A C37A] | 0.08
16 | GACAGAGCUCAACACAGCGUGGCAAAGUGGCUGUAGCUAGACAGCC [G2A G35A U43A] | 0.08
17 | GACAGAGCACAACACAGCGGGCCAAAGUGGCUGUCGCUAGACUCCC [G2A U9A U20G G22C G35C G44C] | 0.34
18 | GACAGAGCCCAACACAGCGUGGCAAAGUGGCUGUUGCUAGUCUGCC [G2A U9C G35U A41U] | 0.04
19 | GACAGAGCCCAACACAGCGUGGCAAAUUGACUGUGGCUAGACUGCC [G2A U9C G27U G30A] | 0.11

Row | Variant | self-cleavage
20 | GACAGAGCGCAACACAGCGUGGCAAAGUGGCUGUAGCUAGACUGCC [G2A U9G G35A] | 0.17
21 | GACAGAGCGCAACACAGCGUGGAAAAGUGGCUGUUGCUAGCCUGCC [G2A U9G C23A G35U A41C] | 0.06
22 | GACAGAGCCAAACACAGCGUGGCAAAGUGGCUGUGGCUCGACUGCC [G2A U9C C10A A39C] | 0.06
23 | GACAGAGCCCAACACAGGGUGUCAAAGUGGUUGUGCCUAGACUGCC [G2A U9C C18G G22U C31U G36C] | 0.01
24 | GACAGAGCCCACCACAGCGUGGCACAGUUGCUGUGGCUAGACUGCC [G2A U9C A12C A25C G29U] | 0.02
25 | GACAGAGCUCAACACAGCGUGGCAAAGUCCCUGUGGCUAGACUGCC [G2A G29C G30C] | 0.03
26 | GACAGAGCUCAACACAGCGUGGCAAAGUGGCUGUGGCUACACUACC [G2A G40C G44A] | 0.14
27 | GACAGAGCUCAACACAGCGUGGCAAAGUGACUAUGUCUAGACUGCC [G2A G30A G33A G36U] | 0.25
28 | GACAGAGCUCAACACAGCGUGGCAAAUUUGCGGUGGCUAGACUGCC [G2A G27U G29U U32G] | 0.17
29 | GACAGAGCUCAACACAGCGUGGCAAAGUGUCUGUGGCUAGACUGAG [G2A G30U C45A C46G] | 0.69
30 | GACAGAGCUCAACACAGCGUGGCAAAGUGGCUUUGGCCAGUCUGCC [G2A G33U U38C A41U] | 0.16
31 | GACAGAGCACAACAAAGCGUGGCAAAGUGGCUGUGGCUAGAAUGCC [G2A U9A C15A C42A] | 0.72
32 | GACAGAGCUCAACACAGCGUGGCAAAGUAGCUGUGGCUACACUGCC [G2A G29A G40C] | 0.14
33 | GACAGAGCACAACACAGCGUGGCAAAGUGGCUGUGGCUAGACUGUC [G2A U9A C45U] | 0.22
34 | GACAGAGCUCAACACAGCGUGGCAAAGUGGCUCAGGUUAGACUGCC [G2A G33C U34A C37U] | 0.11
35 | GACAGAGCUCAACACAGCGUGGCAAAUUGGCUGUGGCAAGACUGCC [G2A G27U U38A] | 0.19
36 | GACAGAGCGCAAGACAGCGUGGCAAAGUGGCUGUGGCUAGACUGCC [G2A U9G C13G] | 0.9
37 | GACAGAGCACAACACAGCGUGGCGAAGUGGCUGUGACUAGAGUGUC [G2A U9A A24G G36A C42G C45U] | 0.48
38 | GACAGAGCCCAACACAGCGUGCCAAAGUUGCUGUUGAUGGUCUGCC [G2A U9C G22C G29U G35U C37A A39G A41U] | 0.01

Row | Variant | self-cleavage
39 | GACAGAGCGCAACACAGCGUGGCAAAGUGGCUGUGGCUAGAAUGCC [G2A U9G C42A] | 0.17
40 | GACAGAGCGCAACACAGCGUGGCAAAGUGGCUUGGGCUAGACUGCC [G2A U9G G33U U34G] | 0.1
41 | GACAGAGCUCAACACAGCGUGGCAAAGUUGGUGCGACUAGACUGCC [G2A G29U C31G U34C G36A] | 0.2
42 | GACAGAGCUCAACACAGCGUGGCAAAGUGGCUGUAGCCAGACUGCC [G2A G35A U38C] | 0.36
43 | GACAGAGCUCAACACAGCGUGGCAAAAUGGUUGUGGCUAUACUGCC [G2A G27A C31U G40U] | 0.03
44 | GACAGAGCGCAACACAGCGUGGCAAAGUGACUGUGGCUAGAAUGCC [G2A U9G G30A C42A] | 0.03
45 | GACAGAGCUCAACACAGCGUGGCAAAGUGUCUGUGGCUACACUGCC [G2A G30U G40C] | 0.12
46 | GACAGAGCUCAACACAGCGUGGCAAAGUGUCUGUGGCCAGACAGCC [G2A G30U U38C U43A] | 0.1
47 | GACAGAGCUCAACACAGCGUGACAAAGAGGCUGUGGCUAUAGUGCC [G2A G22A U28A G40U C42G] | 0.07
48 | GACAGAGCUCAACACAGCGUGCGAAAGUGGCUGUGGCUAGACUGCC [G2A G22C C23G] | 0.8
49 | GACAGAGCACAACAUAGCGUGGCAAAUUGGCUUUGGCUAGACUGCC [G2A U9A C15U G27U G33U] | 0.17
50 | GACAGAGCUCAACACAGCGUGUCAAAGUCGUUGUGGCUAGACUGCC [G2A G22U G29C C31U] | 0.13
51 | GACAGAGCUCAACACAGCGUGGCAAAAUGGCUUUGGCUAGACUGCC [G2A G27A G33U] | 0.18
52 | GACAGAGCUCAACACAGCGUGUCAAAGUGGCUGUGGCUAGACUGCU [G2A G22U C46U] | 0.37
53 | GACAGAGCCUAACACAGCAUGGCAAAGUGGCUGUGGCUAGACUGCC [G2A U9C C10U G19A] | 0.03
54 | GACAGAGCUCAACACAGCGUGAUAAAGUGGCUGUGUCUAGACUGCC [G2A G22A C23U G36U] | 0.24
55 | GACAGAGCUCAACACAGCGUGGCAAAAAGGCUGUAGCUAGAAUGCC [G2A G27A U28A G35A C42A] | 0.56
56 | GACAGAGCUCAACACAGCGUUGCAAAGUGACUGUGGCUAGACUGCU [G2A G21U G30A C46U] | 1.35
